Experimental data from the supplement of paper PMC11417369.
Some of the results follow.

system: PfAP2-HC AP2 domain (GST-tagged); experiment: gcPBM binding intensity (ln(normalized median fluorescence intensity)); higher = stronger DNA binding
Outline: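 For binding intensity, the highest Masliner-normalised natural-log median intensity across replicate spots of either probe orientation was taken. Protein bound to the array was stained with Alexa488 anti-GST antibody and scanned at 488 nm. The protein, GST-tagged P. falciparum DNA-binding domains from E. coli at about 25 μg on average, had been applied for 1 h to an Agilent 4 × 180k array of primer-extended double-stranded 36-bp intergenic genomic probes and negative controls.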

Row | Sequence | gcPBM binding intensity (ln)
1 | GTAAGATTTCTTGTTGCATGCGGTAAAAAGTAAAAT [TGCATGCA_site469] | 9.69
2 | AAAAAGAAATATTTATGTACATAATAATAATATTTT [XGTACX_site4693] | 9.65
3 | AATATAGATACATATACACACACACCCATACATATA [CACACA_site9137] | 10.6
4 | CAATTAAATATATGAACACACATGTGAACTTTCTAT [CACACA_site3977] | 9.89
5 | AAATACCTGATATATACACACTATGTTTTTCTTTTT [CACACA_site6680] | 10.1
6 | TATTAAATTATATAGACACACATTATATATATATAT [CACACA_site4345] | 9.78
7 | ATAATTATATAAATATATATAATATATATATGAAAA [XGTACX_negctrl_site357] | 9.5
8 | AAAATGGGTTAGCACATACACACCAATATATTATAT [CACACA_site3082] | 9.99
9 | AAGAAAAACATTACGTGTACCAAAAGGCCTGTCAAC [XGTACX_site267] | 9.94
10 | GTAACAAATAAAATAACACACATGTCGAAATGTATG [CACACA_site2971] | 10.4
11 | GAAATACATTTTAAAAAATAAGTAATTATAAAATAA [TGCATGCA_negctrl_site303] | 9.54
12 | ATTCATCCAATAATGTGAATTATCATGATAAACTTA [TGCATGCA_negctrl_site406] | 9.52
13 | TTTATAAATAAACACACACACATGTGAACATAAAAA [CACACA_site5110] | 10.5
14 | GATACCTATAGACACACACACATACCTATATACATA [CACACA_site7586] | 10.9
15 | ATCAAAATTGTCATTACACACCTTTATTTTTAGAAT [CACACA_site1813] | 9.76
16 | ATTATTCTATATGAAACATGCATACATTTGTATTTT [TGCATGCA_site823] | 9.82
17 | ATATATGTAAATGAATGTACATTATTTTATATATTA [XGTACX_site8460] | 9.81
18 | TACAACTTAATATGTACACACAAATATATATATATA [CACACA_site5138] | 9.73
19 | AAAATAATAAAAAACTGTACGAATTAAAAATTAACA [XGTACX_site8454] | 9.76
20 | TCCAATAATTTATAAAAAAAAAAAGGGAAAATGTAT [TGCATGCA_negctrl_site492] | 9.37
21 | TTGGATTTTTCCTATGAACACACGGGGTTACAATTA [CACACA_site449] | 9.54
22 | TTAATATGAGAATAATGTACAAGAAAATATTACATA [XGTACX_site6609] | 9.59
23 | ATATATTTATTATTAACATGCAATCATTATATATAA [TGCATGCA_site404] | 9.29

Row | Sequence | gcPBM binding intensity (ln)
24 | CTTTCATTTCTATCTACACACATATTTTTTCCAAGT [CACACA_site2972] | 10
25 | AAAAGAAAAAAAAGTACACACATGTATATTAAGCGT [CACACA_site5402] | 10.1
26 | TTAATGTACAGACACCCACACACAAACAAATATATA [CACACA_site8888] | 10.2
27 | TTTTTTTTTCCCCCATGTACATAAATAAGTATATCT [XGTACX_site6965] | 9.58
28 | GCGTGCGTGTACTTAACACACATAATATGTATTTAT [CACACA_site1247] | 9.83
29 | TATATATATAAATACAGTACATATATAATATTTTGA [XGTACX_site637] | 9.69
30 | AAAAATATATATATATATATATATATATTATTTTTT [TGCATGCA_negctrl_site378] | 9.41
31 | TAACTTAATTTTAATGCACACAATTTATATATATAT [CACACA_site6022] | 9.8
32 | AATTATATGAAATAAACACACATATGCAATATTGCA [CACACA_site6988] | 9.76
33 | ATATGTACTATACGCACACACACTCACATATATATA [CACACA_site3239] | 10.6
34 | TTCAAGATTTATTATACACACATATTAAAATATATA [CACACA_site4479] | 9.59
35 | AAACATTTTCATTTGACACACATCATATATTTATAT [CACACA_site1794] | 10.1
36 | AATCTATCAAAGTGTACATGCAATAAAAAAAAAAAA [TGCATGCA_site103] | 9.59
37 | AAAAAATTATTATGAACACACATTTATTATATTCAT [CACACA_site1566] | 9.76
38 | GAGGTCTTTTTTAATGTGCACATATATATATATATA | 9.84
39 | TTTTTTTATTAATGTAGTACAATATAATGTTATATT [XGTACX_site2295] | 9.6
40 | TTTTTTTTTTTTTTTACACACTCCAATAAAAAAGAA [CACACA_site2119] | 9.42
41 | TATAAAAATATATTTACACACTATAAATATCGAAAG [CACACA_site6896] | 9.7
42 | TAATTTATAAATATAATATTTATGTATATGATGTTT [CACACA_negctrl_site464] | 9.56
43 | ATTATATATATCAGGTGTACGTAAAAAAAATGGACG [XGTACX_site1028] | 9.88
44 | ATTAAGTATATTTCTGCACACAAAAAAAAAAACCAA [CACACA_site9342] | 9.88
45 | GTATATATATATAAAAGTACATGTTATGAAAAAAAA [XGTACX_site5410] | 9.84
46 | TATATATAGAAACACACACACATATATATATATATA [CACACA_site773] | 10.5

Row | Sequence | gcPBM binding intensity (ln)
47 | TTTTTTCTCAAAAAAAAAACCTATGGTTATTAAGAT [XGTACX_negctrl_site534] | 9.23
48 | TATAAGAAAAATAACACACACATAAACATAAATACA [CACACA_site5536] | 10.3
49 | AAAAAAAAAAAAAAATGTACATAAAAATGATATAAT [XGTACX_site4096] | 9.96
50 | AAAATTTATAGTATGGTGCATAAAAATATATATATA | 9.7
51 | TTATAATTCTATTATCTGTTCTTTTTATATTTTTTT [CACACA_negctrl_site855] | 9.91
52 | TTCTAAACACATTGACAAATTAATATATTACAGCAA [GTGCAC_negctrl_site121] | 9.43
53 | TTATTTTTCAATGAAAAGGATTATATATATATATAT [CACACA_negctrl_site757] | 9.36
54 | TGATGAAAATTTTTCTGTACAAAAAGTATGAAGGTA [XGTACX_site8901] | 9.62
55 | ACAATATATAAAATATGTACATAATATATATAATGA [XGTACX_site8731] | 9.77
56 | CCTAATTTTATTAGGGTGCATTTTTAGTTAAATATA | 9.5
57 | TAAGTTATATGTACTACACACGTACACAAAATAAGA [CACACA_site9237] | 9.86
58 | ATCCACAAATTAACAAGTACATATATATATATATAT [XGTACX_site1267] | 9.58
59 | TTAAGAATCTATACTAGTACATATATGTATACAAGC [XGTACX_site8025] | 9.7
60 | TGTAGAACAAAAAATTGTACATATTTGTAAAAAAAA [XGTACX_site3850] | 9.66
61 | ATTGTGTTAATAAAATGTACATTTTCTCTACTTTAA [XGTACX_site1199] | 9.83
62 | TATATATATATGTGTAGTACAACAAATATGAAAAAT [XGTACX_site4059] | 9.96
63 | AATTTAATATAATGCACACATAAAAAAAAATTCAAA [CACACA_site2062] | 9.76
64 | ATGAAAACCATGACGGGTACTCATTTATTATTTTAT [XGTACX_site6724] | 9.73
65 | ATTTATTTGTTTATTTGTTTATTTGTTTATTTGTTT [CACACA_negctrl_site1386] | 9.9
66 | ATCCATCTTTTAATTTGTACTTATTCTTTTTTCTTT [XGTACX_site5299] | 10
67 | ATTAGTTTTATATATAGTACATATAATTTTGAAGGT [XGTACX_site7445] | 9.64
68 | ATATATATATGTAATAGTACATATGATAGTTTGTCA [XGTACX_site1545] | 9.88
69 | TATGATATATATAATACACACATATACATAAGATCT [CACACA_site1119] | 10

Row | Sequence | gcPBM binding intensity (ln)
70 | AATATATATATATTATCACACACTCACGTTTGACAA [CACACA_site8130] | 9.83
71 | ATTATATCATATATATGTACACATATATAACATGAT [XGTACX_site7] | 9.62
72 | TAAAAAAAACGAACAAGTACACATAAAAAAAAATTA [XGTACX_site5982] | 9.69
73 | TTGTAATTTATTCAAACACACAATTTGGACCTTTTT [CACACA_site1063] | 9.66
74 | TATTCATAATTTTAATGTACAAAATGGTTTGTAATA [XGTACX_site8493] | 9.43
75 | AAAGATAAATTAAAAAGTACATATTTATTCAATGTA [XGTACX_site8543] | 9.6
76 | CACTTTTTTTTTTACTGTACATATACAAATTAAAAA [XGTACX_site1565] | 9.5
77 | TTTTATTTATCTTAATGTACACATTTATATATATAT [XGTACX_site8588] | 9.98
78 | TATAATAATTAAAAGTGTACTAAATTTTTACATATA [XGTACX_site2523] | 9.6
79 | TTAAATAAAAGGTTTAGTACTTAAAATAAGAAATGA [XGTACX_site6341] | 9.57
80 | GTAAATATAAACTCAGCACACAAACATATATATGTC [CACACA_site9326] | 9.99
81 | TTTTTTTTCAATGGTTGTACAAAGTAAAACAACAAA [XGTACX_site1582] | 9.36
82 | TGGGTGTAGAACAATTGTACTTTGTAAAAATATAAG [XGTACX_site8464] | 9.68
83 | TTTATACTATAATTATGTACTTATAAAAGGAATAAA [XGTACX_site8027] | 9.38
84 | ATAAACACATCTATATGTACATATATATATATATAC [XGTACX_site347] | 10.1
85 | ATGTAAATACATATATGTACACAAATATATATATAT [XGTACX_site3537] | 9.86
86 | TATATAAATATACATTGTACTCAACATTTTCATTAA [XGTACX_site3690] | 9.62
87 | TATATTAAATAAAAAGTGCATGTCTCATAAGATGGA [GTGCAC_site9520] | 9.74
88 | TATAAATAAAGCAGTACACACATTTATTTTAGATAC [CACACA_site7566] | 10
89 | ATAAAATGTTAAGGGTGTACTTTACACATCTCCTAT [XGTACX_site4699] | 9.71
